Source: PMC9926122
Results are given in words; binding and its absence hold for the method and conditions named. For some assays here: In cells and extracts the contact can be indirect. Some results given as binding are weak or reduced against the parent protein; the word gives no strength. For some assays here: Where a sequence is shown, tags or fusion partners need not be part of it. Blank lines part the entries; values can stand above or below the substance they belong to.

By UniProt entry, the sequences of proteins in these tests, tags left out.
UniProt Q15691: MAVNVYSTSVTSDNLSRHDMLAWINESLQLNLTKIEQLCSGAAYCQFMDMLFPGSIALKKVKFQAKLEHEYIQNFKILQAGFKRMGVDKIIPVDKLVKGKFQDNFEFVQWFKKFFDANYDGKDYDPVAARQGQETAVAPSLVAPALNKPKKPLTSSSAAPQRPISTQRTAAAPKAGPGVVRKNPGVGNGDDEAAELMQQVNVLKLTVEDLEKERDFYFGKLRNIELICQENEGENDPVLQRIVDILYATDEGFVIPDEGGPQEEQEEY

Tests used:
EB1-GST (human) = EB1-GST (human) (UniProt Q15691); assay: pull-down; purified Ska1 WT or mutant proteins incubated with EB1-GST preincubated with GSH-Sepharose beads; beads washed with lysis buffer; immunoblot; both purified
[1] = biological target: 6xHis-tagged WT Ska1 (human) (UniProt Q96BD8); assay: high-speed atomic force microscopy (HS-AFM); proteins (10-30 nM; 10 nM in the frames shown) in BRB80 buffer (80 mM Pipes, 1 mM EGTA, 1 mM MgCl2, pH 6.9) on mica, tapping mode, 150 ms per frame; EB1 alone, Ska1 alone and their mixture; both purified
[2] = biological target: endogenous EB1 (end binding 1) (human (endogenous in HEK293T)) (UniProt Q15691); assay: co-IP; endogenous EB1 immunoprecipitated with EB1 antibody (protein A/G beads) from lysates of transfected HEK293T cells synchronized in mitosis by double thymidine; Western blot for the GFP-tagged Ska1 proteins
Ska1 1-132-GFP (human) [3] = biological target: Ska1 1-132-GFP (human) (UniProt Q96BD8); assay: co-IP; Ska1 1-132-GFP immunoprecipitated with GFP antibody (Takara), protein A/G beads; blot for EB1
Ska1 1-132-GFP (human) [4] = biological target: Ska1 1-132-GFP (human) (UniProt Q96BD8); assay: co-IP; GFP-tagged Ska1 proteins pulled down with GFP-trap beads (4 h) from lysates of transfected HEK293T cells synchronized in mitosis by double thymidine, in part with Ska1 siRNA; Western blot for EB1 or Ska3
Ska1 1-91-GFP (human) = Ska1 1-91-GFP (human) (UniProt Q96BD8); assay: as above
Ska1 SHNN-GFP (human) = Ska1 SHNN-GFP (human) (UniProt Q96BD8); assay: as above
Ska1 Δloop-GFP (human) = Ska1 Δloop-GFP (human) (UniProt Q96BD8); assay: as above
[5] = biological target: full-length Ska1-GFP (siRNA-resistant) (human) (UniProt Q96BD8); assay: as above

binding [1]: no binding (tested: 10 nM)
Substance: 6xHis-tagged WT Ska1 (from UniProt Q96BD8 1-255)

binding [2]: binds
Substance: Ska1 1-132-GFP (from UniProt Q96BD8 1-132) (domain or fragment)

More lines, now with the values behind:

Substance: 6xHis Ska1Δloop (from UniProt Q96BD8 1-91; Q96BD8 133-255)
binding (EB1-GST (human)): no binding

Substance: Ska1 Δloop-GFP (from UniProt Q96BD8 1-91; Q96BD8 133-255)
binding [2]: no binding

Substance: endogenous EB1 (end binding 1) (from UniProt Q15691 1-268)
binding (Ska1 1-132-GFP (human) [3]): binds | binding (Ska1 1-132-GFP (human) [4]): binds | binding (Ska1 1-91-GFP (human)): no binding | binding (Ska1 SHNN-GFP (human)): no binding | binding (Ska1 Δloop-GFP (human)): no binding | binding [5]: binds

Substance: full-length Ska1-GFP (siRNA-resistant) (from UniProt Q96BD8 1-255)
binding [2]: binds
